In the supplement of paper PMC4604168 (melanoma cell lines):
The other results are listed elsewhere or left out. Repeats are few or missing, and single values can be far off.

Columns and labels:
Experiment in all cases: cell count relative to DMSO control; melanoma cells; higher = more viable cells
Conditions in all cases: library dose: standard library concentration; 72 h
G361 = test system: G361
IPC-298 = test system: IPC-298
IST-MEL1 = test system: IST-MEL1
LB2518-MEL = test system: LB2518-MEL
LOXIMVI = test system: LOXIMVI
MEL-HO = test system: MEL-HO
MZ2-MEL = test system: MZ2-MEL
MeWo = test system: MeWo
RPMI7951 = test system: RPMI7951
RVH-421 = test system: RVH-421
SkMel28 = test system: SkMel28
SkMel2 = test system: SkMel2
SkMel30 = test system: SkMel30
SkMel5 = test system: SkMel5
UACC257 = test system: UACC257
UACC62 = test system: UACC62
WM115 = test system: WM115
WM1716 = test system: WM1716
WM1745 = test system: WM1745
WM3526 = test system: WM3526
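Note: cells treated in 1,536-well plates, then fixed and DAPI-stained, with nuclei counted from automated high-throughput microscope images.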

Structure (SMILES) | cell count (G361) | cell count (IPC-298) | cell count (IST-MEL1) | cell count (LB2518-MEL) | cell count (LOXIMVI) | cell count (MEL-HO) | cell count (MZ2-MEL) | cell count (MeWo) | cell count (RPMI7951) | cell count (RVH-421) | cell count (SkMel28) | cell count (SkMel2) | cell count (SkMel30) | cell count (SkMel5) | cell count (UACC257) | cell count (UACC62) | cell count (WM115) | cell count (WM1716) | cell count (WM1745) | cell count (WM3526)
CO[C@H]1C[C@@H]2CC[C@@H](C)[C@@](O)(O2)C(=O)C(=O)N2CCCC[C@H]2C(=O)O[C@H]([C@H](C)C[C@@H]2CC[C@@H](OCCO)[C@H](OC)C2)CC(=O)[C@H](C)/C=C(\C)[C@@H](O)[C@@H](OC)C(=O)[C@H](C)C[C@H](C)/C=C/C=C/C=C/1C [everolimus] + O=C(CCCCCCC(=O)Nc1ccccc1)NO [vorinostat] (first compound 0.1 µM, partner dose 0.4 µM) | 60.2% | 70.7% | 75.8% | 87% | 71.9% | 76.9% | 105% | 75.1% | 83.3% | 92.7% | 40.9% | 73% | 63.9% | 78.4% | 63.2% | 82.2% | 87.8% | 88.4% | 110% | 82.4%
CC(=O)c1c(C)c2cnc(Nc3ccc(N4CCNCC4)cn3)nc2n(C2CCCC2)c1=O [palbociclib] + C=CCn1c(=O)c2cnc(Nc3ccc(N4CCN(C)CC4)cc3)nc2n1-c1cccc(C(C)(C)O)n1 [MK1775] (first compound 0.2 µM, partner dose 0.1 µM) | 75.2% | 62% | 84.7% | 52.6% | 73.3% | 74.3% | 75.8% | 52.9% | 51.5% | 63.3% | 35.8% | 48.6% | 56.1% | 48.2% | 82.4% | 61.2% | 43.3% | 50% | 65.5% | 50%
Nc1ncn([C@H]2C[C@H](O)[C@@H](CO)O2)c(=O)n1 [decitabine] + Cc1ccc(NC(=O)c2cccc(N(C)C)c2)cc1NC(=O)c1ccc(O)cc1 [ZM336372] (first compound 0.5 µM, partner dose 10 µM) | 108% | 74.9% | 74.2% | 82.4% | 110% | 84% | 98% | 78.4% | 82.4% | 95.7% | 81.1% | 96.2% | 129% | 82.2% | 89.9% | 77.7% | 82.9% | 88.3% | 87.2% | 102%
CC(=O)c1c(C)c2cnc(Nc3ccc(N4CCNCC4)cn3)nc2n(C2CCCC2)c1=O [palbociclib] + C[C@@H]1CCN(C(=O)CC#N)C[C@@H]1N(C)c1ncnc2[nH]ccc12 [CP690550] (first compound 0.2 µM, partner dose 5 µM) | 66% | 88.2% | 64.5% | 57.9% | 71% | 79.5% | 80.7% | 65% | 68.2% | 78.9% | 51% | 55.8% | 72.4% | 52.2% | 78.8% | 69.3% | 73% | 46.5% | 65% | 46.3%
Nc1nc(F)nc2c1ncn2[C@@H]1O[C@H](CO)[C@@H](O)[C@@H]1O [fludarabine] + CC1(C)NC(=O)N(c2ccc([N+](=O)[O-])c(C(F)(F)F)c2)C1=O [nilutamide] (first compound 1 µM, partner dose 5 µM) | 81.6% | 78.3% | 104% | 71.2% | 104% | 73% | 110% | 78.3% | 64.4% | 186% | 2.21% | 1.59% | 22.4% | 38% | 35.5% | 65.6% | 77.4% | 96.3% | 83.2% | 24.5%
CC(=O)O[C@@]12CO[C@@H]1C[C@H](O)[C@@]1(C)C(=O)[C@H](O)C3=C(C)[C@@H](OC(=O)[C@H](O)[C@@H](NC(=O)OC(C)(C)C)c4ccccc4)C[C@@](O)([C@@H](OC(=O)c4ccccc4)[C@H]21)C3(C)C [Docetaxel] + Cc1cc(N2CCOCC2)cc2[nH]c(-c3c(NC[C@@H](O)c4cccc(Cl)c4)cc[nH]c3=O)nc12 [BMS536924] (first compound 0.0005 µM, partner dose 1 µM) | 12.9% | 51.2% | 32.4% | 31.7% | 50.8% | 49.8% | 41.3% | 26.8% | 22.4% | 48.4% | 11.1% | 27% | 39.2% | 33% | 66.6% | 55.2% | 39% | 34.8% | 29.7% | 43.6%
CC(=O)O[C@@]12CO[C@@H]1C[C@H](O)[C@@]1(C)C(=O)[C@H](O)C3=C(C)[C@@H](OC(=O)[C@H](O)[C@@H](NC(=O)OC(C)(C)C)c4ccccc4)C[C@@](O)([C@@H](OC(=O)c4ccccc4)[C@H]21)C3(C)C [Docetaxel] + COc1cc(Nc2ncc(F)c(Nc3ccc4c(n3)NC(=O)C(C)(C)O4)n2)cc(OC)c1OC [Tamatinib] (first compound 0.0005 µM, partner dose 2 µM) | 11.7% | 32.8% | 18.2% | 19.4% | 27% | 42.2% | 40.8% | 33.2% | 10.6% | 43.9% | 13.1% | 16.1% | 47% | 30.4% | 61.3% | 61.2% | 38.2% | 38.5% | 15.8% | 34.1%
Nc1ccn([C@@H]2O[C@H](CO)[C@@H](O)C2(F)F)c(=O)n1 [gemcitabine] + CCCS(=O)(=O)Nc1ccc(F)c(C(=O)c2c[nH]c3ncc(Cl)cc23)c1F [PLX4720] (first compound 0.002 µM, partner dose 0.4 µM) | 36.8% | 35.9% | 45.2% | 64.6% | 68.1% | 52.9% | 70.9% | 47.4% | 86.2% | 68.6% | 35.8% | 88.6% | 71.5% | 87.9% | 101% | 44.3% | 80.6% | 64.5% | 60.5% | 58.2%
Nc1ccn([C@@H]2O[C@H](CO)[C@@H](O)C2(F)F)c(=O)n1 [gemcitabine] + C=CCNC1=C2C[C@@H](C)C[C@H](OC)[C@H](O)[C@@H](C)/C=C(\C)[C@H](OC(N)=O)[C@@H](OC)/C=C\C=C(/C)C(=O)NC(=CC1=O)C2=O [Tanespimycin] (first compound 0.002 µM, partner dose 0.01 µM) | 33.6% | 43.7% | 35.6% | 55.8% | 92% | 48% | 77.3% | 33.6% | 18.2% | 44.9% | 69.7% | 93% | 91.3% | 65.8% | 103% | 59.2% | 24.4% | 61.6% | 49.3% | 61.2%
CC(=O)O[C@@]12CO[C@@H]1C[C@H](O)[C@@]1(C)C(=O)[C@H](O)C3=C(C)[C@@H](OC(=O)[C@H](O)[C@@H](NC(=O)OC(C)(C)C)c4ccccc4)C[C@@](O)([C@@H](OC(=O)c4ccccc4)[C@H]21)C3(C)C [Docetaxel] + O=C(O)c1ccc(-c2c[nH]c3ncc(-c4ccccc4)cc23)cc1C1CCCC1 [GSK650394] (first compound 0.0005 µM, partner dose 0.8 µM) | 14.7% | 37.1% | 39.1% | 40.5% | 61.8% | 51.6% | 45.7% | 32.6% | 22.1% | 52.9% | 22.5% | 19.9% | 49.9% | 29% | 64.1% | 55.8% | 42.9% | 34.4% | 33.9% | 40.7%
Nc1ccn([C@@H]2O[C@H](CO)[C@@H](O)C2(F)F)c(=O)n1 [gemcitabine] + C[C@@H]1CCN(C(=O)CC#N)C[C@@H]1N(C)c1ncnc2[nH]ccc12 [CP690550] (first compound 0.002 µM, partner dose 5 µM) | 34.3% | 51.2% | 50.2% | 76.3% | 95.2% | 52% | 102% | 46.4% | 79.6% | 5.69% | 114% | 103% | 115% | 74.9% | 108% | 101% | 66% | 69.1% | 50.5% | 110%
Nc1nc(F)nc2c1ncn2[C@@H]1O[C@H](CO)[C@@H](O)[C@@H]1O [fludarabine] + CO[C@@H]1[C@H](N(C)C(=O)c2ccccc2)C[C@H]2O[C@]1(C)n1c3ccccc3c3c4c(c5c6ccccc6n2c5c31)C(=O)NC4 [Midostaurin] (first compound 1 µM, partner dose 0.4 µM) | 54.9% | 65.7% | 59.8% | 71.6% | 57% | 69.6% | 64.9% | 66.7% | 46% | 58.4% | 2.5% | 1.53% | 7.49% | 28.9% | 29.1% | 64.8% | 45.7% | 48.7% | 41.9% | 19.1%
CO[C@H]1C[C@@H]2CC[C@@H](C)[C@@](O)(O2)C(=O)C(=O)N2CCCC[C@H]2C(=O)O[C@H]([C@H](C)C[C@@H]2CC[C@@H](OCCO)[C@H](OC)C2)CC(=O)[C@H](C)/C=C(\C)[C@@H](O)[C@@H](OC)C(=O)[C@H](C)C[C@H](C)/C=C/C=C/C=C/1C [everolimus] + COc1cc(Nc2ncc(F)c(Nc3ccc4c(n3)NC(=O)C(C)(C)O4)n2)cc(OC)c1OC [Tamatinib] (first compound 0.1 µM, partner dose 2 µM) | 72.2% | 78.1% | 56.5% | 68.4% | 28.7% | 73.2% | 59.8% | 60.5% | 22.6% | 77.8% | 80.4% | 71.6% | 92.1% | 48.4% | 78.4% | 67.3% | 81.8% | 78.3% | 40.5% | 65.2%
CO[C@H]1C[C@@H]2CC[C@@H](C)[C@@](O)(O2)C(=O)C(=O)N2CCCC[C@H]2C(=O)O[C@H]([C@H](C)C[C@@H]2CC[C@@H](OCCO)[C@H](OC)C2)CC(=O)[C@H](C)/C=C(\C)[C@@H](O)[C@@H](OC)C(=O)[C@H](C)C[C@H](C)/C=C/C=C/C=C/1C [everolimus] + Cc1nc(Nc2ncc(C(=O)Nc3c(C)cccc3Cl)s2)cc(N2CCN(CCO)CC2)n1 [dasatanib] (first compound 0.1 µM, partner dose 0.02 µM) | 63.6% | 69% | 64.7% | 60.6% | 32.4% | 66.8% | 46.1% | 68.9% | 44.3% | 55.9% | 26.1% | 73.6% | 70.4% | 63.9% | 73.4% | 71.1% | 58.4% | 53.6% | 54.1% | 64.8%
